The campaign covered roughly 390,000 compounds. About 1,400 (0.36%) were called active. Entries that show only a call come without a potency. The inconclusive results got no clear call from the source; some entries with a clear call stand among them for comparison. Calls follow the shape of the dose curve; as a rule, active = well fitted inhibition curve with a large enough effect; inconclusive = small, poorly fitted or top-dose-only effect; inactive = no such curve, though single readings can be large or run the other way. A potency beside an inconclusive call is a rough fit, not a confirmed value.
These compounds were tested against Flap endonuclease 1 (Homo sapiens) (UniProt P39748) (assay: qHTS Assay for the Inhibitors of Human Flap endonuclease 1 (FEN1).). Conditions: Recombinant FEN1 flap cleavage, fluorescence, 15 min; series mostly up to 114 µM.
Sequence of UniProt P39748 (P39748 whole entry, looked up): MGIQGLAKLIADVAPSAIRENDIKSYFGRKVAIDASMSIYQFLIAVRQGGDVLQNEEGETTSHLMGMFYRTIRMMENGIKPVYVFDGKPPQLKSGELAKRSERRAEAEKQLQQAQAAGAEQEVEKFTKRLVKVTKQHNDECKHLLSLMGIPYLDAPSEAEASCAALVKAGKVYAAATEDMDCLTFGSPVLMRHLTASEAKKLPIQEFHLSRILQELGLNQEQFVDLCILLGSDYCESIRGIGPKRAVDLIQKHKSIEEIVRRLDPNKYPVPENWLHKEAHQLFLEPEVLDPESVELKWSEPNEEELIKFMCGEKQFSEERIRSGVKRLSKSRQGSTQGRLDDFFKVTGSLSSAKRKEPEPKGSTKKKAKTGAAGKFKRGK
Method in brief: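 Concentration–response screening of FEN1 (10 nM): 15 min compound preincubation at room temperature, reaction started with 50 nM substrate and read at 0 and 15 min. Corrected, normalized data were fitted by a four-parameter Hill equation.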
In the case of `COc1ccc(/C=C/C(=O)OCC(=O)NCc2ccco2)cc1OC`, the Potency is reported as “inactive”. In the case of `CCOC(=O)C1=C(C)N(CCCCCC(=O)O)C(=O)NC1c1ccccc1Cl` (configuration not stated), the Potency is reported as “inactive”. With `COc1ccccc1C(=O)NCc1ccc2c(c1)CCN2C(=O)c1ccncc1` the Potency was “inactive”. `C#CCn1cc(/C=N/Nc2nc3ccccc3[nH]2)c2ccccc21` was tested, and the Potency was inconclusive: 56.2 µM [inhibitor, partial curve, poor fit]. For `CN1/C(=C\C=C2/SC(=S)NC2=O)C(C)(C)c2ccccc21`, the Potency was inconclusive: 56.2 µM [inhibitor, partial curve, poor fit]. For `CN(C)C(CNC(=O)C1CCN(S(=O)(=O)c2ccccc2)CC1)c1ccccc1` (configuration not stated), the Potency was “inactive”. For `O=C(CCCN1C(=O)/C(=C/c2cccs2)SC1=S)Nc1cccnc1`, the Potency was “inactive”. With `CCOc1cc(N2CCOCC2)c(OCC)cc1NC(=O)c1cc(S(=O)(=O)N2CCOCC2)ccc1Cl` the Potency was “inactive”. `Cn1c(Cn2nnc3ccccc32)nnc1SCC(=O)N1c2ccccc2CCc2ccccc21` was tested, and the Potency was “inactive”. `CCc1ccccc1Nc1nn2c(=O)c3ccc(C(=O)NCc4cccs4)cc3nc2s1` was tested, and the Potency was “inactive”. In the case of `Oc1ccc2ccccc2c1N=Nc1nccs1`, the Potency is reported as inconclusive: 25.1 µM [inhibitor, partial curve, poor fit]. With `COc1cccc(NC(=O)Cn2c(CCC(=O)O)ccc2-c2cccs2)c1` the Potency was “inactive”. In the case of `O=C(CS(=O)(=O)c1ccccc1)Nc1ncc([N+](=O)[O-])s1`, the Potency is reported as “inactive”. In the case of `Cc1ccn2cc(-c3cccc(NC(=O)C(C)C)c3)nc2c1`, the Potency is reported as inconclusive: 89.1 µM [inhibitor, single point]. In the case of `CC(=O)c1cc(O)c2ccccc2c1O`, the Potency is reported as inconclusive: 39.8 µM [inhibitor, single point]. In the case of `Oc1cc2c(cc1CN1CCN(c3cccc(C(F)(F)F)c3)CC1)CCC2`, the Potency is reported as inconclusive: 89.1 µM [inhibitor, partial curve, poor fit]. In the case of `C/C(=N/Nc1ccc(C(=O)O)cc1)c1ccc(O)c(O)c1O`, the Potency is reported as inconclusive: 25.1 µM [inhibitor, full curve]. `CCOC(=O)c1cc(-c2ccccc2C)nn1Cc1cc(CC)no1` was tested, and the Potency was “inactive”. `O=C(Nc1ccc2nc(SCC(=O)N3CCCc4ccccc43)sc2c1)c1cccc(F)c1` was tested, and the Potency was “inactive”. For `Cc1ccc(OCCn2c(Br)nc3c2c(=O)n(C)c(=O)n3C)cc1`, the Potency was inconclusive: 39.8 µM [inhibitor, single point]. In the case of `COc1ccc(/C=N/NC(=O)c2cc(-c3cccn3C)n[nH]2)cc1OC`, the Potency is reported as inconclusive: 39.8 µM [inhibitor, partial curve, poor fit]. For `COc1ccccc1NCCC(=O)OCC(=O)NCc1ccco1`, the Potency was “inactive”.

— PubChem BioAssay AID588795 (National Center for Advancing Translational Sciences (NCATS), 2011)
Also: nearly all actives have a fitted effect of over 65% in size.
Potency is read from the fitted curve at half-maximal effect; tags tell the direction and shape of the fitted curve.
